Among all 310,000 compounds or so, about 2,200 (0.71%) showed an effect of 50% or more. The effect is printed as a negative number. Some of the results follow.
target: human ether-à-go-go-related gene (hERG) potassium channel (human, UniProt Q12809); assay: primary screen, population patch clamp on CHO cells stably expressing hERG
Sequence (Q12809 whole entry, looked up): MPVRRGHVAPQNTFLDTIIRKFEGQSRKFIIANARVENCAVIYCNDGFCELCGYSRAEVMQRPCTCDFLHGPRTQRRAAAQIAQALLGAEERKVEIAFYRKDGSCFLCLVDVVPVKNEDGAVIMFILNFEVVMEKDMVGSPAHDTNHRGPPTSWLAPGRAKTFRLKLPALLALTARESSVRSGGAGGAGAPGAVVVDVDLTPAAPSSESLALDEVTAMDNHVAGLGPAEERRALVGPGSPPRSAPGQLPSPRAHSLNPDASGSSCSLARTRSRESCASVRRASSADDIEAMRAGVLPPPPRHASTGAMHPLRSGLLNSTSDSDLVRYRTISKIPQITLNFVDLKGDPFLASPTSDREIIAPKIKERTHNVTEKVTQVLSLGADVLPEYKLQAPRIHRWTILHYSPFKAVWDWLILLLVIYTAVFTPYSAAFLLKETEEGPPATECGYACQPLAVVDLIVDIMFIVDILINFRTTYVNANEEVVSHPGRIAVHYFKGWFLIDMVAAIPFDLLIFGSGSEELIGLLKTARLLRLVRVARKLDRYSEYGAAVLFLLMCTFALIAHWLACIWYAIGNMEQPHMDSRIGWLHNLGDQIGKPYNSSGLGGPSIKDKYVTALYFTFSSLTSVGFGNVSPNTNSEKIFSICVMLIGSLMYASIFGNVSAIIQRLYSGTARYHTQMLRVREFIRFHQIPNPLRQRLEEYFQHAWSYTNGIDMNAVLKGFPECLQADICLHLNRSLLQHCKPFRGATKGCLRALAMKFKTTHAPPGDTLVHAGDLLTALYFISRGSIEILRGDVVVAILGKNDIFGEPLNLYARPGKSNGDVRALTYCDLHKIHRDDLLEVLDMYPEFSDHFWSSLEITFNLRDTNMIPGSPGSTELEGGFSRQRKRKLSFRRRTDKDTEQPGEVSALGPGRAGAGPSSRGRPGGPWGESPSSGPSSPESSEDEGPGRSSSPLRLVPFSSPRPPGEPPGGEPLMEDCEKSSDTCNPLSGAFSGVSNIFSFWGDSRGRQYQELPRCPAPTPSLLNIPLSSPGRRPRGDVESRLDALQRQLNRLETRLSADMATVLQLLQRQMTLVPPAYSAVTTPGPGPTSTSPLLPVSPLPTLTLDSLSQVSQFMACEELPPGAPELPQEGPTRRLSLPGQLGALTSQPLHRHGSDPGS

Structure (SMILES)	hERG current change (%, negative = inhibition) at 1uM
CCC1(C)Cc2c(C#N)c(SC)nc(N3CCOCC3)c2CO1 (stereo not drawn)	10.1%
CCC(=O)Nc1sc2c(c1C#N)CCCCC2	8.12%
COc1ccc(CNC(=O)C2CCN(S(=O)(=O)c3ccc(SC)cc3)CC2)cc1	11.3%
Cc1cc(C)cc(-n2nnc(C(=O)NCc3ccccc3Cl)c2N)c1	8.27%
CCCCn1c(O)c(C(C)=Nc2ccc(C(=O)O)cc2)c(=O)[nH]c1=O	14.6%
COc1cc2cc(C(c3nnnn3C(C)(C)C)N3CCc4ccccc4C3)c(=O)[nH]c2cc1OC (stereo not drawn)	-3.88%
COCCC(=O)N1CCC(Oc2ccc(C(=O)NC(C)CCn3cccn3)cc2)CC1 (stereo not drawn)	10.3%
Cc1noc(C)c1CSCC(=O)OCC(=O)NC1CCCCC1	13.5%
CCOCc1nnc(NC(=O)C2CCN(C(=O)C3CC(=O)N(c4ccc(C)cc4)C3)CC2)s1 (stereo not drawn)	12.4%
COc1cc(NC(=O)C2CC(c3ccccc3O)=NO2)c(OC)cc1Cl (stereo not drawn)	12.3%
COc1cccc(CN2CCSCC2)c1	12%
COc1cc(/C=N/n2cnnc2-n2nc(C)cc2C)cc([N+](=O)[O-])c1O	-2.73%
CC(c1ccccc1)N1C(=O)C2C3CCC(C3)C2C1=O (stereo not drawn)	9.41%
COC(=O)c1ccc([N+](=O)[O-])c(CS(=O)(=O)c2ccc(Cl)cc2)c1	8.08%
COCCCNC(=O)c1ccc([N+](=O)[O-])c(Cl)c1	5.23%
CCOC(=O)C1CCCN(C(=O)c2ccc3oc(Cc4ccccc4)nc3c2)C1 (stereo not drawn)	-7.47%
O=C(O)C1C2C=CC(O2)C1C(=O)NCc1ccc2c(c1)OCO2 (stereo not drawn)	12.4%
O=S(=O)(Nc1nc2ccccc2nc1N1CCN(c2ccccc2)CC1)c1ccc(F)cc1	15.3%
CC1(C)C(=O)Nc2ccccc2N1C(=O)COC(=O)Cc1c(F)cccc1Cl	-4.56%

Structure (SMILES)	hERG current change (%, negative = inhibition) at 1uM
Cc1ccccc1C(=O)/C=C1\NC(=O)CS1	6.92%
COC(=O)c1ccc(C23CC4(C2)[C@H](CN(Cc2ccc(-c5ccccc5)cc2)[C@@H]4c2ccccc2)C3c2ccc(Cl)nc2)cc1 (stereo partly drawn)	-2.88%
Cc1ccc(NC(=O)Cn2nc(C)cc2C)cc1	7.66%
CCn1cc(CN2CCN(CCc3ccccc3)C(CCO)C2)c(C)n1 (stereo not drawn)	7.56%
COc1ccc(NC(=O)Nc2ccccn2)cc1OC	25.4%
O=C(Nc1ccc2c(c1)CCC2)C1CCCN(c2ncccn2)C1 (stereo not drawn)	9.72%
COCCNC(=O)c1ccc(CS(=O)(=O)c2ccc(C)cc2)o1	-13.7%
Cc1ccc(/C=C2\Oc3c(ccc(O)c3CN3CCN(C)CC3)C2=O)cc1	7.06%
Cc1ccc(Cl)cc1N1CCN(CC(O)COCc2ccco2)CC1.O=C(O)C(=O)O (stereo not drawn)	-29.2%
Cc1cc(=O)[nH]c(NCCO)n1	14.5%
CCCc1ccc(OCCNC(=O)c2ccco2)cc1	-6.16%
CC(C)(C)OC(=O)CNC(=O)c1nc[nH]c1C(=O)N1CCc2ccccc2C1	6.85%
O=C(OCCCN=C1NS(=O)(=O)c2ccccc21)c1ccc(F)cc1	3.9%
Cc1nc2ccccc2c(=O)n1-c1ccc(NS(=O)(=O)c2ccc(F)cc2F)cc1	-17.6%
CN(Cc1ccccc1)C(=O)CN1C(=O)COc2ccc(S(=O)(=O)N3CCCC3)cc21	4.35%
Cc1ccc(OCCOCCN(C)C)c(Cl)c1.O=C(O)C(=O)O	5.45%
Cc1nn(CCC(N)=S)c2nc(-c3cccs3)cc(C(F)(F)F)c12	7.18%
COC(=O)c1sccc1NC(=O)CCC1CCCC1	6.07%
CCOC(=O)c1c(CN(C)C)n(-c2ccccc2)c2cc(Br)c(OC)cc12	3.82%

Structure (SMILES)	hERG current change (%, negative = inhibition) at 1uM
NC(=O)c1ccccc1NC(=O)c1ccc2ccccc2c1	17.6%
CC1Cn2c(CCc3ccccc3)nnc2S1 (stereo not drawn)	9.95%
O=C(O)c1cccnc1Nc1ccc(Cl)cc1	17.3%
COc1ccccc1NC(=O)COC(=O)CN1C(=O)C(=O)c2ccccc21	13%
COc1ccc(-c2cc(C(=O)Nc3ccc(C(N)=O)cc3)c3ccccc3n2)cc1	16.8%
OCC1OC(n2cnc3c(NCCc4ccccc4)ncnc32)C(O)C1O (stereo not drawn)	14.5%
Cc1nc(Cc2nnc(SC(C)C(=O)N3c4ccccc4NC(=O)C3(C)C)o2)cs1 (stereo not drawn)	2.7%
Fc1ccc(-c2cnc(-c3cccs3)o2)cc1	21.1%
CCOC(=O)C1(Cc2ccccc2)CCN(Cc2cnc(N3CCOCC3)s2)CC1	-4.93%
COC(=O)CN(C)C(=O)c1ccccc1OC1CCN(S(C)(=O)=O)CC1	12.6%
O=C(/C=C\Nc1ccc(S(=O)(=O)Nc2ncccn2)cc1)c1cccc2ccccc12	8.3%
O=C(NNC(=O)c1cccc(O)c1)Nc1ccc([N+](=O)[O-])cc1	7.74%
Cc1ccc2ncnc(NCCCN3CCOCC3)c2c1	3.63%
NC(=Nc1ccc(Cl)cc1)c1ccccc1	7.87%
NC(N)=Nc1nc(CCN2C(=O)c3ccccc3C2=O)cs1	8.44%
COc1ccccc1OCc1ccc(C(=O)Nc2ccc(Cl)cn2)o1	7.5%
O=C1Nc2ccc(F)cc2C12SCCS2	6.52%
CC1(C)CC2CC(C)(CN2CC(=O)C(C#N)c2ccccc2)C1 (stereo not drawn)	12.2%
COc1cc(/C=C2/C(=N)N3N=C(C)SC3=NC2=O)ccc1OS(=O)(=O)c1ccc(C)cc1	14.1%

— publication PMC4336329 (PLoS ONE, 2015)
